From PubChem BioAssay AID1508624 (National Center for Advancing Translational Sciences (NCATS), 2021)
Out of some 48,000 compounds screened, about 120 (0.25%) were called active. Another 4% or so got no clear call; they are omitted. Calls follow the shape of the dose curve; as a rule, active = well fitted activation curve with a large enough effect; inconclusive = small, poorly fitted or top-dose-only effect, or another doubt; inactive = no such curve, though single readings can be large or run the other way. The list shows a part of the results.

Assay: Primary qHTS for Identification of Small Molecule Activators of Huntingtin-Antisense Promoter Activity; also: nearly all actives have a fitted effect of over 55% in size
Conditions: HEK293 HTT-AS promoter firefly luciferase reporter, 24 h; series mostly up to 57.5 µM; activity change, positive = activation: at the top concentration
Procedure, shortened: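 HEK293 cells carrying firefly luciferase reporters were seeded at 2,500 per well in Opti-MEM and cultured for 24 h. They were then treated with compounds at up to 57.5 uM final for 24 h at 37 degrees C before Dual-Glo luminescence readout.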

Activity change, positive = activation, inactive:
CCOc1ccccc1C(=O)N1CCC(c2nc3ccccc3o2)CC1 -34.3%, Cc1nc(SCC(=O)Nc2ccc(C(=O)O)cc2)n[nH]1 -6.31%, COc1ccc(OC)c(NC(=O)CC(=O)Nc2ccc3nc4n(c(=O)c3c2)CCCCC4)c1 -16.1%, CCc1ccccc1NC(=O)Cn1nc(N2CCN(c3ccccc3OC)CC2)ccc1=O -17.4%, O=C1c2ccccc2S(=O)(=O)N1CCCCN1CCN(c2ncccn2)CC1 -4.09%, CN(C)CCCO[C@@H]1[C@H]2OC(C)(C)O[C@H]2O[C@@H]1C(O)CO (stereo not given in full) -0.253%, CCOc1ccc(N(CC)S(=O)(=O)N2CCCC(C(=O)Nc3ccc(OC)c(Cl)c3)C2)cc1 (stereo not given) -29.1%, Cc1cccc(NC(=O)CN2C(=O)CSc3ccc(S(=O)(=O)N4CCCC4)cc32)c1C -14%, COc1cccc(NC(=O)CSc2c3c(nc4ccccc24)CCCC3)c1 2.89%, O=C(Nc1ccccc1C(F)(F)F)N1CC=C(c2c[nH]c3ccccc23)CC1 -12%, COC(=O)CC(=O)CSc1nc2cc(C(=O)NCC(C)C)ccc2c(=O)n1CCc1ccccc1 -2.79%, COc1ccc(-c2onc(C)c2C)cc1S(=O)(=O)N1CCN(c2cc(C)ccc2C)CC1 -8.75%, Cc1c(Cl)ccc2sc(N3CCN(C(=O)C4CC4)CC3)nc12 -4.18%, COc1ccc(-c2cc3nc(C)c(CCC(=O)NC(C)c4ccccc4)c(C)n3n2)c(OC)c1 (stereo not given) -18.9%, Cc1nn(C(=O)c2cccc([N+](=O)[O-])c2C)c(C)c1S(=O)(=O)N1CCCCCC1 -2.89%, Cn1cc(S(=O)(=O)c2cccc(Cl)c2)c(=O)c2cc(F)c(N3CCCCC3)cc21 -15%, O=C(NCCc1ccc(Cl)cc1)c1ccc(CSCc2cccc(Cl)c2)o1 -9.54%, Cc1ccc(Cl)cc1NC(=O)c1oc2ccc(S(=O)(=O)N3CCCCCC3)cc2c1C 19.2%, Cc1cc(C)cc(OCC(=O)N2CCC(c3nc4ccccc4s3)CC2)c1 -9.54% [at 11.5 µM, percent change from vehicle, -100% = no light], CCc1cccc(C)c1NC(=O)CSc1nc2c(c(=O)[nH]1)CCC2 -22.2%, NC(=O)CSc1nc2ccc(NC(=O)COc3ccccc3Cl)cc2s1 -15.1%, Cn1c([N+](=O)[O-])cnc1COC(N)=O -6.87%, CS(=O)(=O)N(Cc1ccccc1)c1ccc(C(=O)Nc2ccc(Cl)cc2)cc1 -53.3%, Cc1cccc(-n2nc(C)c(C(=O)N3CCN(c4ccccc4)CC3)c2-n2cccc2)c1 -24.5%, Cc1cc(F)ccc1NC(=O)CCn1nc(C)c(S(=O)(=O)N2CCCCC2)c1C -25.3%, COc1ccccc1C(=O)Nc1ccc(S(=O)(=O)Nc2ncccn2)cc1 -3.83%, Cc1ccc(C)c(N2CCN(C(=O)C(CC(C)C)NS(=O)(=O)c3ccc4nc(C)sc4c3)CC2)c1 (stereo not given) -25.7%, CCOc1ccc(-c2cc(C(=O)NCCc3ccc(OC)c(OC)c3)c3c(-c4ccc(F)cc4)[nH]nc3n2)cc1 -55.3%, COc1cccc(-c2nc(SCC(=O)Nc3ccc4c(c3)OCCO4)c(-c3ccc(C)cc3)[nH]2)c1 -30%, COc1ccc(Cl)cc1NC(=O)c1cc(S(=O)(=O)N(C)Cc2ccccc2)ccc1F -2.77%, CCOC(=O)c1cnc2c(C)cccc2c1Nc1ccc(OC(C)C)cc1 -18.5%, Cc1ccc(C)c(N2CCN(c3nc4ccc(C(=O)c5ccccc5)cc4n4cnnc34)CC2)c1 -0.965%, CCOc1ccccc1OCCNC(C)Cc1ccc(OC)c(S(N)(=O)=O)c1 (stereo not given) -6.23%, Cc1cccc(OCCCn2c(CCNC(=O)C3CCCCC3)nc3ccccc32)c1 -32.1%, COc1ccccc1CN(Cc1c(Cl)cccc1Cl)S(=O)(=O)c1ccc(Br)cc1 2.23%, Cn1c(=O)[nH]c(=O)c2c1nc(CN1CCN(c3ccccc3F)CC1)n2Cc1ccc(F)cc1 -20.7%, COc1cc(C2Nc3ccccc3-c3nnc(SCc4ccc(C)cc4)nc3O2)cc(OC)c1O (stereo not given) -46.5%, CCc1nn(CC(=O)NCCCc2ccccc2)c(=O)c2cc3ccccc3n12 -6.36%, Cc1c(Cl)cccc1NC(=O)Cn1c(=O)n(Cc2nc(-c3ccccc3)no2)c(=O)c2cc3c(cc21)OCO3 -12.6%, CCCC(=O)Nc1cccc(-c2cn3c(C)csc3n2)c1 9.41%, Cc1c(Cl)cccc1NC(=O)C1CCN(c2nc3ccccc3[nH]2)CC1 -15.8%, Cc1ccc(Nc2cc(C)c(C#N)c3nc4ccccc4n23)c(C)c1 -13.1%, COC(=O)c1sccc1S(=O)(=O)N(CC(=O)Nc1ccccc1)c1ccccc1 -7.09%, CCc1ccc(CNC(=O)c2cnc3c(C)cccn3c2=O)cc1 -3.93%, Cc1ccc2oc(=O)n(CCNC(=O)Nc3ccc(Cl)cc3)c2c1 -18.5%, Cc1cc(C(=O)NCc2ccccc2Cl)c2c(C)nn(-c3cccc(F)c3)c2n1 -23.8%, O=C(NCC(c1ccco1)S(=O)(=O)c1cccs1)c1ccc(Cl)cc1 (stereo not given) 0.821%, CCCN(C(=O)Nc1cn(CC(C)C)c(=O)c2ccccc12)c1ccc(F)cc1 -25.4%, Cc1ccc(C(=O)Nc2ccc3oc(-c4ccccc4C)nc3c2)cc1 -3.92%, CCCCNC(=O)c1ccc2c(c1)NC(=O)C(CS(=O)(=O)Cc1ccc(C)cc1)N2 (stereo not given) -11.1%, CC(=O)N1CCc2c(sc3c2c(=O)n(-c2ccc(C)cc2)c(=O)n3Cc2ccccc2C)C1 -36.5%, CC(C)C(=O)OCc1cc(=O)n2nc(C3CC3)sc2n1 25.6%, Cc1cc(NC(=O)c2cccn2-c2nnc(N3CCCCC3)s2)ccc1Br -18.9%, Cc1cccc(C)c1NC(=O)CN1CCCCCC1 -1.49%, CCN1CCN(c2oc(/C=C/c3cc(OC)c(OC)c(OC)c3)nc2C#N)CC1 -16.5%, CCc1ccc(C2c3c(oc4cc(C)c(C)cc4c3=O)C(=O)N2c2nc(C)c(C(=O)OC)s2)cc1 (stereo not given) 1.18%, Cc1cc(C)cc(NC(=O)CSc2nc3sc4c(c3c(=O)[nH]2)CCCC4)c1 -3.25%, CCC1CN(C(=O)Nc2cc(Cl)c(OC)cc2OC)c2ccccc2O1 (stereo not given) -20.1%, COc1ccc(-c2noc(CC(=O)Nc3ccc(C)c(F)c3)n2)cc1 -4.75%, COc1cc(OC)c(C2C(C(=O)Nc3ccccc3)=C(C)Nc3ncnn32)cc1OC (stereo not given) 0.195%, CCCCC1CCC(C(=O)N2CC(=O)Nc3ccc(Br)cc3C2c2ccc(F)cc2)CC1 (stereo not given) -20.3%, COC(=O)COc1ccc(-c2nnc(Nc3ccc(O)cc3)c3ccccc23)cc1 -34.1%, CCc1ccc(S(=O)(=O)c2nnn3c2nc(N2CCN(c4ccccc4)CC2)c2cc(Cl)ccc23)cc1 20.6%, Cc1cccc2c1-c1sc(C(=O)Nc3ccc(F)cc3F)cc1CO2 -2.83%, CCN(CC)C(=O)Cn1c(=O)n(CCCCCC(=O)NCc2ccc3c(c2)OCO3)c(=O)c2sccc21 -22.6%, CCC(=O)OCc1cc(=O)n2nc(C3CC3)sc2n1 12.6%, Cc1ccc(CNC(=O)c2ccc(N3CCCC3)c(NC(=O)Nc3ccc(C)cc3)c2)cc1 3.43%, Cc1ccc(CNC(=O)C(=O)Nc2c3c(nn2-c2ccc(F)cc2)CSC3)cc1 -14.3%, Cc1ccc(NC(=O)CN2C(=O)COc3ccc(S(=O)(=O)N4CCCCCC4)cc32)c(C)c1 -12.9%, CCCc1cc(=O)oc2c3c(ccc12)OCN(Cc1ccccc1OC)C3 -7.03%, CN(C(=O)Cn1nc(Cc2cccnc2)c2ccccc2c1=O)c1cccc(C(F)(F)F)c1 -14.3%, CCOc1ccc(N(C)C(=O)c2oc(=O)c3ccccc3c2-c2ccccc2)cc1 -38.1%, CCc1ccc(-c2nc(CS(=O)CC(=O)NCCc3ccc(C)cc3)c(C)o2)cc1 (stereo not given) -11.8%, CC(C)c1cnc2c(c1SCC(=O)NC(C)(C)C)c(=O)n(C)c(=O)n2C -1.93%, CCn1cc2c(n1)-c1c(oc(C(=O)Nc3ccc(Br)cc3F)c1C)CC2 16.8%, O=C(O)CC1c2ccccc2CCN1C(=O)Nc1cc(Cl)ccc1Cl (stereo not given) -8.73%, Cc1ccc(N(CC(=O)N2CCN(c3cc(C)ccc3C)CC2)S(=O)(=O)c2c(C)nn(C)c2C)cc1 -44.2%, Cc1ccc(CN(C(=O)c2ccc(OCC(C)C)cc2)c2ccccn2)o1 4.74%, CCOC(=O)c1noc2nc(C)n(CC(=O)Nc3cccc(OC)c3)c(=O)c12 -13%, CCCCN(CC)C(=O)CSc1nc2n[nH]c(C)c2c(=N)n1-c1ccc(CC)cc1 -43.6%, CCOc1ccc(-c2cccc(NS(=O)(=O)c3ccc(C)s3)c2)nn1 -15.4%, COc1ccc(NC(=O)CSc2ncc3c(n2)-c2ccccc2N(Cc2ccc(C)cc2)S3(=O)=O)cc1Cl -42%, Cc1ccc(N(C)C(=O)c2sc3nc4n(c(=O)c3c2C)CCCC4)cc1C -17.9%, COCCCn1c(=O)c2sccc2n2c(CCCC(=O)NCc3cccc(OC)c3)nnc12 1.13%, CN(C)CC[C@@H](c1ccc(Cl)cc1)c1ccccn1 -0.476%, CCN1C(=O)c2ccccc2S(=O)(=O)c2ccc(C(=O)NCc3ccccc3)cc21 -20.2%, O=C(CSc1ncc(-c2ccccc2)[nH]1)Nc1ccccc1 9.9%, CCOC(=O)C1CCN(C(=O)c2ccccc2NC(=O)c2nsc3ccccc23)CC1 -15.6%, CCOc1ccc(NS(=O)(=O)c2c(C)nc3sc(C)c(C)n3c2=O)cc1 -39.3%, CCOC(=O)C1CCC(CN(Cc2ccc(Cl)cc2)S(=O)(=O)c2cccc(Cl)c2C)CC1 (stereo not given) -29.6%, Cc1nc2nc(NC(=O)c3ccc(C(C)(C)C)cc3)[nH]n2c(=O)c1C -5.35%, CCCCOc1ccc(C(=O)Nc2ccc3c(c2)CCCN3C(=O)c2cccs2)cc1 -38.5%, O=C(CCC1N=C2c3ccccc3N=C(SCC(=O)Nc3cccc(Cl)c3)N2C1=O)NCc1ccco1 (stereo not given) -11.3%, NC(=O)C1CCN(S(=O)(=O)c2cc3c(cc2Cl)NC(=O)CO3)CC1 -4.6%, COC(=O)c1ccccc1NC(=O)[C@H]1O[C@@H]2OC(C)(C)O[C@@H]2[C@H]2OC(C)(C)O[C@H]21 -11.8%
